Reference: publication PMC12511354
Results are given in words; binding and its absence hold for the method and conditions named. Binding seen in cells or lysates may run through a third protein. Some binding calls cover weakened binding; strength is not graded here.

Amino acid sequences for entries named in this document (tags omitted).
UniProt Q8BSQ9: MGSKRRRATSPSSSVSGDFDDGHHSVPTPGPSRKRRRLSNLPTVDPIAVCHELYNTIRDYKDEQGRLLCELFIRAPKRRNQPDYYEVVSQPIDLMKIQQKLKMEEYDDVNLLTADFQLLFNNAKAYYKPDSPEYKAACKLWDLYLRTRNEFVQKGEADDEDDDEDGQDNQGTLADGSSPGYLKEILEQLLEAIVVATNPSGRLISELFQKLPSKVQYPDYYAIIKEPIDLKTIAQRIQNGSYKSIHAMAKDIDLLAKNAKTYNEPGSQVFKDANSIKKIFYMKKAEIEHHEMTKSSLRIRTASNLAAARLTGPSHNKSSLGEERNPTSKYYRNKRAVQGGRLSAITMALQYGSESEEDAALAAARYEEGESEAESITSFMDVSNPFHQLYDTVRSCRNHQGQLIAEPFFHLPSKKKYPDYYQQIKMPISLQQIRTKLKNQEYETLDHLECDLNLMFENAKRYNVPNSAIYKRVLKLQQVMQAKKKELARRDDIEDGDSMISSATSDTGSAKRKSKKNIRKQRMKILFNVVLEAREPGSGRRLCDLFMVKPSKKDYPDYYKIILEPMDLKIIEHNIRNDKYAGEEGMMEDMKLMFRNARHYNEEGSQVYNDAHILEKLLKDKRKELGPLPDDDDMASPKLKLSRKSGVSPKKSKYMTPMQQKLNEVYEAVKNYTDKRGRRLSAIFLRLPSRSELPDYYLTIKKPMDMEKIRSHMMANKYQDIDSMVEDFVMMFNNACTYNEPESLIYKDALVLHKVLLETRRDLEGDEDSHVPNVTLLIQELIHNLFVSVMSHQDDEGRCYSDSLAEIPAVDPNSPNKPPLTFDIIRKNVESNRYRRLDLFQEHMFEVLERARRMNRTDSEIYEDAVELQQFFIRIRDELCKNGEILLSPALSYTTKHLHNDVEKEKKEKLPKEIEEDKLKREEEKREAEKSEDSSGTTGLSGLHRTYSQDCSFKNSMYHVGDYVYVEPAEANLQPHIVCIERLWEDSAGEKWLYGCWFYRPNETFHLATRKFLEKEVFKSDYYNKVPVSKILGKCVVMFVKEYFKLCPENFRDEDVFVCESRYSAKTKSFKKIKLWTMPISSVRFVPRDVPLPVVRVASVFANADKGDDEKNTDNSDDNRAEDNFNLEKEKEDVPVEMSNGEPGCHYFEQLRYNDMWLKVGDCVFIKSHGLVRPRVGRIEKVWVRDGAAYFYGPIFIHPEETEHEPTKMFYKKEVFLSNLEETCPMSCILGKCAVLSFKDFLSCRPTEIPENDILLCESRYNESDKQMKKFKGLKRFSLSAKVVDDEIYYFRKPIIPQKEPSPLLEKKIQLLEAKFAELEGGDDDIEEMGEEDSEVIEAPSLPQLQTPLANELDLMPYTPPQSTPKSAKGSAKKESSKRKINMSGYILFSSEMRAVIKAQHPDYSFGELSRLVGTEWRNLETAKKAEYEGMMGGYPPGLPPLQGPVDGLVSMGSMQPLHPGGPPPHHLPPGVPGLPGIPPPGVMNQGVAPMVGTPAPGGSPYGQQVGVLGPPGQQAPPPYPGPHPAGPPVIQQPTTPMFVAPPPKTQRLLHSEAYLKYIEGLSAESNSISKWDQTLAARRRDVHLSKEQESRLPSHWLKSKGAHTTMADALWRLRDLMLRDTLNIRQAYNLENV

B1: BRD7 (protein, UniProt O88665 1-651)
chain: MGKKHKKHKSDRHFYEEYVEKPLKLVLKVGGSEVTELSTGSSGHDSSLFEDRSDHDKHKDRKRKKRKKGEKQAPGEEKGRKRRRVKEDKKKRDRDRAENEVDRDLQCHVPIRLDLPPEKPLTSSLAKQEEVEQTPLQEALNQLMRQLQRKDPSAFFSFPVTDFIAPGYSMIIKHPMDFSTMKEKIKNNDYQSIEELKDNFKLMCTNAMIYNKPETIYYKAAKKLLHSGMKILSQERIQSLKQSIDFMSDLQKTRKQKERTDACQSGEDSGCWQREREDSGDAETQAFRSPAKDNKRKDKDVLEDKWRSSNSEREHEQIERVVQESGGKLTRRLANSQCEFERRKPDGTTTLGLLHPVDPIVGEPGYCPVRLGMTTGRLQSGVNTLQGFKEDKRNRVTPVLYLNYGPYSSYAPHYDSTFANISKDDSDLIYSTYGEDSDLPNNFSISEFLATCQDYPYVMADSLLDVLTKGGHSRSLQDLDMSSPEDEGQTRALDTAKEAEITQIEPTGRLESSSQDRLTALQAVTTFGAPAEVFDSEEAEVFQRKLDETTRLLRELQEAQNERLSTRPPPNMICLLGPSYREMYLAEQVTNNLKELTQQVTPGDVVSIHGVRKAMGISVPSPIVGNSFVDLTGECEEPKETSTAECGPDAS
B2: PHF10 (protein, UniProt Q9D8M7 1-497)
chain: MTAAGPGAAPSPGRCDSDPASPGAQSPKDDNEDNSNDGTHPCKRRRMGSGDSSRSCETSSQDLSFSYYPAENLIEYKWPPDETGEYYMLQEQVSEYLGVTSFKRKYPDLERRDLSHKEKLYLRELNVITETQCTLGLTALRSDEVIDLMIKEYPAKHAEYSVILQEKERQRITDHYKEYSQMQQQSTQKVEASKVPEYIKKAAKKAAEFNSNLNRERMEERRAYFDLQTHVIQVPQGKYKVLPTDRTKVSSYPVALIPGQFQEYYKRYSPDELRYLPLNTALYEPPLDPELPALDSDGDSDDGEDGGGDEKRKNKGTSDSSSGNVSEGDSPPDSQEDTFHGRQKSKDKMATPRKDGSKRSVLSKSAPGYKPKVIPNALCGICLKGKESNKKGKAESLIHCSQCDNSGHPSCLDMTMELVSMIKTYPWQCMECKTCIICGQPHHEEEMMFCDVCDRGYHTFCVGLGAIPSGRWICDCCQRAPPTPRKVGRRGKNSKEG

Molecular target: PBRM1 (mouse (endogenous in liver)) (UniProt Q8BSQ9)
Test: co-IP; native PBRM1 IP from MNase-digested liver nuclear extract of wild-type (CT0-CT20) or FH-H3.3A (CT8, CT20) mice; isotype-matched IgG as negative control; immunoblots

Row | Binder | binding
1 | B1 | binds
2 | B2 | binds
